Laboratory results from the supplement of paper PMC4604168 (melanoma cell lines).
This is one part of the list. Single values are uncertain, as repeats are few or missing.

Tests used:
Assay in all cases: cell count relative to DMSO control; melanoma cells; higher = more viable cells
Conditions in all cases: library dose: low library concentration; 72 h
WM115 = tested on: WM115
WM1716 = tested on: WM1716
WM1745 = tested on: WM1745
WM3526 = tested on: WM3526
WM3619 = tested on: WM3619
WM451Lu = tested on: WM451Lu
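Note: cell number obtained by counting DAPI-stained nuclei in high-throughput microscope images with image analysis software, screen run in 1,536-well plates.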

| Compound | cell count (WM115) | cell count (WM1716) | cell count (WM1745) | cell count (WM3526) | cell count (WM3619) | cell count (WM451Lu) |
| --- | --- | --- | --- | --- | --- | --- |
| Cc1cc(Nc2cc(N3CCN(C)CC3)nc(/C=C/c3ccccc3)n2)n[nH]1 + COc1cc(N2CCC(N3CCN(C)CC3)CC2)ccc1Nc1ncc(Cl)c(Nc2ccccc2S(=O)(=O)C(C)C)n1 [NVP-TAE684] (first compound 0.04 µM, partner dose 0.08 µM) | 82.3% | 97.5% | 78.8% | 67.3% | 94.8% | 86.4% |
| COc1ccc(C2=N[C@@H](c3ccc(Cl)cc3)[C@@H](c3ccc(Cl)cc3)N2C(=O)N2CCNC(=O)C2)c(OC(C)C)c1 [Nutlin-3] + CCCCCCCCCCCC1=C(O)C(=O)C=C(O)C1=O [Embelin] (first compound 0.1 µM, partner dose 1.2 µM) | 100% | 78.4% | 106% | 106% | 124% | 125% |
| Cc1cn(-c2cc(NC(=O)c3ccc(C)c(Nc4nccc(-c5cccnc5)n4)c3)cc(C(F)(F)F)c2)cn1 [nilotinib] + Cn1nnc2c(C(N)=O)ncn2c1=O [temozolomide] (first compound 0.2 µM, partner dose 2 µM) | 96.8% | 89.3% | 81.8% | 119% | 106% | 101% |
| Cc1cc(Nc2cc(N3CCN(C)CC3)nc(/C=C/c3ccccc3)n2)n[nH]1 + NC1(c2ccc(-c3nc4ccn5c(=O)[nH]nc5c4cc3-c3ccccc3)cc2)CCC1 [MK2206] (first compound 0.04 µM, partner dose 0.4 µM) | 79.5% | 87.8% | 77.6% | 71.4% | 85.5% | 88.2% |
| COc1ccc(C2=N[C@@H](c3ccc(Cl)cc3)[C@@H](c3ccc(Cl)cc3)N2C(=O)N2CCNC(=O)C2)c(OC(C)C)c1 [Nutlin-3] + C=C(c1ccc(C(=O)O)cc1)c1cc2c(cc1C)C(C)(C)CCC2(C)C [Bexarotene] (first compound 0.1 µM, partner dose 2 µM) | 87.2% | 82.2% | 83.3% | 77% | 84.9% | 94.1% |
| COc1ccc(C2=N[C@@H](c3ccc(Cl)cc3)[C@@H](c3ccc(Cl)cc3)N2C(=O)N2CCNC(=O)C2)c(OC(C)C)c1 [Nutlin-3] + CC(C)C[C@H](NC(=O)[C@H](Cc1ccccc1)NC(=O)c1cnccn1)B(O)O [Bortezomib] (first compound 0.1 µM, partner dose 0.001 µM) | 99.7% | 52.7% | 92.5% | 83.7% | 36% | 90.5% |
| Cc1cn(-c2cc(NC(=O)c3ccc(C)c(Nc4nccc(-c5cccnc5)n4)c3)cc(C(F)(F)F)c2)cn1 [nilotinib] + C[C@@H](N)c1ccc(C(=O)Nc2ccnc3[nH]ccc23)cc1 [RKI983] (first compound 0.2 µM, partner dose 0.4 µM) | 99.1% | 51% | 80.8% | 103% | 108% | 108% |
| Cn1c(=O)n(-c2ccc(C(C)(C)C#N)cc2)c2c3cc(-c4cnc5ccccc5c4)ccc3ncc21 + C[C@@H]1CCN(C(=O)CC#N)C[C@@H]1N(C)c1ncnc2[nH]ccc12 [CP690550] (first compound 0.004 µM, partner dose 1 µM) | 97.9% | 94% | 88.8% | 92.3% | 91.1% | 78.8% |
| Cc1cn(-c2cc(NC(=O)c3ccc(C)c(Nc4nccc(-c5cccnc5)n4)c3)cc(C(F)(F)F)c2)cn1 [nilotinib] + C=CCn1c(=O)c2cnc(Nc3ccc(N4CCN(C)CC4)cc3)nc2n1-c1cccc(C(C)(C)O)n1 [MK1775] (first compound 0.2 µM, partner dose 0.02 µM) | 97.3% | 70.9% | 82.1% | 93.4% | 100% | 73.8% |
| Cc1cc(Nc2cc(N3CCN(C)CC3)nc(/C=C/c3ccccc3)n2)n[nH]1 + O=C(Nc1cccc(Cl)c1)Nc1ncc(CCNc2ncnc3ccsc23)s1 [SNS314] (first compound 0.04 µM, partner dose 0.0008 µM) | 68.2% | 84.7% | 84.7% | 88.8% | 114% | 92.6% |
| CC(C)C[C@H](NC(=O)[C@H](Cc1ccccc1)NC(=O)c1cnccn1)B(O)O [Bortezomib] + CS(=O)(=O)CCNCc1ccc(-c2ccc3ncnc(Nc4ccc(OCc5cccc(F)c5)c(Cl)c4)c3c2)o1 [lapatinib] (first compound 0.001 µM, partner dose 0.8 µM) | 92.5% | 41% | 59.4% | 90.5% | 16.8% | 96% |
| Cn1c(=O)n(-c2ccc(C(C)(C)C#N)cc2)c2c3cc(-c4cnc5ccccc5c4)ccc3ncc21 + N#Cc1c(O)c2c(-c3ccc(-c4ccccc4O)cc3)csc2[nH]c1=O [A769662] (first compound 0.004 µM, partner dose 2 µM) | 99.8% | 99.7% | 109% | 53.5% | 79.1% | 53.5% |
| Cn1c(=O)n(-c2ccc(C(C)(C)C#N)cc2)c2c3cc(-c4cnc5ccccc5c4)ccc3ncc21 + C#Cc1cccc(Nc2ncnc3cc(OCCOC)c(OCCOC)cc23)c1 [erlotinib] (first compound 0.004 µM, partner dose 0.8 µM) | 91.9% | 82.2% | 82.8% | 71% | 87.8% | 84.3% |
| Cc1cc(Nc2cc(N3CCN(C)CC3)nc(/C=C/c3ccccc3)n2)n[nH]1 + NC(=O)Nc1cc(-c2cccc(F)c2)sc1C(=O)N[C@H]1CCCNC1 [AZD7762] (first compound 0.04 µM, partner dose 0.02 µM) | 89.8% | 101% | 93.7% | 87.2% | 61.2% | 87.7% |
| Cn1c(=O)n(-c2ccc(C(C)(C)C#N)cc2)c2c3cc(-c4cnc5ccccc5c4)ccc3ncc21 + CO[C@H]1C[C@@H]2CC[C@@H](C)[C@@](O)(O2)C(=O)C(=O)N2CCCC[C@H]2C(=O)O[C@H]([C@H](C)C[C@@H]2CC[C@@H](OCCO)[C@H](OC)C2)CC(=O)[C@H](C)/C=C(\C)[C@@H](O)[C@@H](OC)C(=O)[C@H](C)C[C@H](C)/C=C/C=C/C=C/1C [everolimus] (first compound 0.004 µM, partner dose 0.02 µM) | 61.4% | 58.9% | 72.8% | 46.9% | 38.9% | 48.1% |
| COc1ccc(C2=N[C@@H](c3ccc(Cl)cc3)[C@@H](c3ccc(Cl)cc3)N2C(=O)N2CCNC(=O)C2)c(OC(C)C)c1 [Nutlin-3] + CN(C)S(=O)(=O)c1ccc2c(c1)/C(=C/c1cc3c([nH]1)CCCC3)C(=O)N2 [SU6656] (first compound 0.1 µM, partner dose 0.4 µM) | 82.2% | 112% | 83.2% | 113% | 122% | 92% |
| Cc1cn(-c2cc(NC(=O)c3ccc(C)c(Nc4nccc(-c5cccnc5)n4)c3)cc(C(F)(F)F)c2)cn1 [nilotinib] + NC(=O)c1ccc(N(C(N)=O)c2c(F)cccc2F)nc1-c1ccc(F)cc1F [VX702] (first compound 0.2 µM, partner dose 0.4 µM) | 97.9% | 105% | 97.6% | 92.9% | 98.6% | 89.8% |
| CC(C)C[C@H](NC(=O)[C@H](Cc1ccccc1)NC(=O)c1cnccn1)B(O)O [Bortezomib] + Cn1c(Nc2ccc(C(F)(F)F)cc2)nc2cc(Oc3ccnc(-c4ncc(C(F)(F)F)[nH]4)c3)ccc21 [CHIR265] (first compound 0.001 µM, partner dose 0.08 µM) | 75.6% | 22.2% | 33.1% | 48.5% | 7.04% | 76.6% |
| Cc1cn(-c2cc(NC(=O)c3ccc(C)c(Nc4nccc(-c5cccnc5)n4)c3)cc(C(F)(F)F)c2)cn1 [nilotinib] + Nc1cccc2c1CN(C1CCC(=O)NC1=O)C2=O [lenalidomide] (first compound 0.2 µM, partner dose 1 µM) | 97.6% | 91.2% | 81.6% | 100% | 110% | 97.2% |
| Cn1c(=O)n(-c2ccc(C(C)(C)C#N)cc2)c2c3cc(-c4cnc5ccccc5c4)ccc3ncc21 + O=C(O)c1ccc2c(c1)nc(Nc1cccc(Cl)c1)c1ccncc12 [CX4945] (first compound 0.004 µM, partner dose 0.4 µM) | 90.9% | 92.7% | 96.3% | 93% | 86.5% | 97.9% |
| Cc1cn(-c2cc(NC(=O)c3ccc(C)c(Nc4nccc(-c5cccnc5)n4)c3)cc(C(F)(F)F)c2)cn1 [nilotinib] + N#Cc1c(O)c2c(-c3ccc(-c4ccccc4O)cc3)csc2[nH]c1=O [A769662] (first compound 0.2 µM, partner dose 2 µM) | 112% | 89.2% | 99.8% | 89.1% | 112% | 108% |
| Cn1c(=O)n(-c2ccc(C(C)(C)C#N)cc2)c2c3cc(-c4cnc5ccccc5c4)ccc3ncc21 + COc1ccc(COc2ccc(Cc3cnc(N)nc3N)cc2OC)cc1 [GW2580] (first compound 0.004 µM, partner dose 1 µM) | 89.9% | 86.6% | 107% | 88.9% | 99.3% | 102% |
| Cc1cc(Nc2cc(N3CCN(C)CC3)nc(/C=C/c3ccccc3)n2)n[nH]1 + Cc1cc(N2CCOCC2)cc2[nH]c(-c3c(NC[C@@H](O)c4cccc(Cl)c4)cc[nH]c3=O)nc12 [BMS536924] (first compound 0.04 µM, partner dose 0.2 µM) | 102% | 98.6% | 60.8% | 89.6% | 97.1% | 105% |
| Cc1cn(-c2cc(NC(=O)c3ccc(C)c(Nc4nccc(-c5cccnc5)n4)c3)cc(C(F)(F)F)c2)cn1 [nilotinib] + COc1ccc(-c2ccc3c(N4CCOCC4)nc(N4C[C@@H](C)O[C@@H](C)C4)nc3n2)cc1CO [KU0063794] (first compound 0.2 µM, partner dose 0.02 µM) | 94.5% | 113% | 82.2% | 89.5% | 93% | 104% |
